Source: PubChem BioAssay AID256 (DTP/NCI, 2004)
Inconclusive results and toxic doses are left out. A number of entries come with more than one value. The list is limited to them. An entry can have further records. The records of an entry do not match, cause unknown; they may come from other doses, times, organisms or constructs than stated.

Tested on: CD2F1 mice, L1210 leukemia ip, survival T/C
Test: NCI In Vivo Anticancer Drug Screen. Data for tumor model L1210 Leukemia (intraperitoneal) in CD2F1 (CDF1) mice
Conditions: endpoint: median survival time; dose: 8.0 mg/kg/injection; schedule: Q01DX009 (ip); vehicle: saline; higher = longer survival
Method: The antitumor activity of compounds was measured in mice bearing transplantable tumors. Survival or tumor size were measured and the results are expressed as the measurement made in the treated group (T) divided by the measurement made in the vehicle treated control group (C). The tumor model used in this assay is L1210 Leukemia (intraperitoneal) in CD2F1 (CDF1) mice

In the case of N[C@H](C(=O)O)[C@@H]1CC(Cl)=NO1, the T/C is reported as 98 % of control and 166 % of control.
